Results reported in patent publication US12286458 (NAVIGO PROTEINS, dated 2025).

Biological target: acid alpha glucosidase (GAA) (UniProt P10253)
Assay: SPR, BIAcore 3000, biotinylated GAA immobilized on chip, binder as analyte, Langmuir 1:1
Text: 500-1500 RU GAA (ON-ligand) was immobilized on a CM-5 sensor chip (GE Healthcare); the chip was equilibrated with SPR running buffer. GAA was biotinylated with Sulfo-NHS-Biotin standard reagent and purified via size exclusion chromatography (Superdex 200). The target protein was immobilized by injection of a biotinylated target on Streptavidin coated sensor chip. Upon ligand binding, protein analyte was accumulated on the surface increasing the refractive index. This change in the refractive index was measured in real time and plotted as response or resonance units versus time. The analytes were applied to the chip in serial dilutions with a flow rate of 30 μl/min. The association was performed for 120 seconds and the dissociation for 360 seconds. After each run, the chip surface was regenerated with 30 μl regeneration buffer (10 mM Glycine) and equilibrated with running buffer. Binding studies were carried out by the use of the BIAcore 3000 (GE Healthcare); data evaluation was operated via the BIAevaluation 3.0 software, provided by the manufacturer, by the use of the Langmuir 1:1 model (RI=0). Evaluated dissociation constants (K_D) were standardized against GAA and indicated. Shown is the change in refractive index measured in real time and plotted as response or resonance unit [RU] versus time [sec].

Row | Binder | Kd [nM]
1 | GAA binding protein SEQ ID NO: 1 (192403) (designed binder) IAAKFDMKQAWADHFILELPNLTEEQRNAFRQSLSDDPSVSDLVLLQAQKLNQMQAPK | 26.5
2 | GAA binding protein SEQ ID NO: 2 (192402) (designed binder) IAAKFDMKQAWADHFILELPNLTEEQRNAFRQSLSDDPSVSDLVLAQAQKLNQSQAPK | 23
